Measured values as given in PubChem BioAssay AID504937 (National Center for Advancing Translational Sciences (NCATS), 2011).
Screen size: about 340,000 compounds; about 20 (0.006%) were called active. Inconclusive results, whose numbers are uncertain, are shown with a selection of clear calls. Calls follow the shape of the dose curve; as a rule, active = well fitted inhibition curve with a large enough effect; inconclusive = small, poorly fitted or top-dose-only effect; inactive = no such curve, though single readings can be large or run the other way. Potencies of inconclusive entries are doubtful fits and often do not repeat.

Target: Sphingomyelin phosphodiesterase (Homo sapiens) (UniProt P17405)
Assay: Inhibitors of Secretory Acid Sphingomyelinase (S-ASM): qHTS
Conditions: placental ASM, HMU-PC fluorogenic substrate (series up to 57.5 µM), 60 min; activity change, negative = inhibition: at the top concentration
Source text: Atherosclerosis is the underlying process for cardiovascular disease and thus is a major contributor to disease burden in the population. […] Thus, selective small molecule inhibitors of S-ASM should block LDL modification and reduce aortic LDL retention and may serve as new agents for the treatment of atherosclerosis. In a collaboration between National Heart, Lung, and Blood Institute and the NCGC a high-throughput amenable screen was developed to identify potent and selective small molecule inhibitors of S-ASM. This enzymatic, fluorescent screen uses an ASM enzyme preparation derived from human placenta and was tested against the NIH Molecular Libraries Small Molecule Repository (MLSMR). NIH Chemical Genomics Center [NCGC] NIH Molecular Libraries Probe Centers Network [MLPCN] MLPCN Grant: MH093173-01 Assay Submitter (PI): Alan Remaley, National Heart, Lung, and Blood Institute and Wei Zhen, NIH Chemical Genomics Center
Two microliters of ASM enzyme (1:150 dilution from stock) are dispensed in 1536-well plate. 23 nL of compound and control are pinned into assay plate using the Kalypsys pintool. The plates are then incubated for 10 minutes at ambient room temperature. Then, 2 uL of the flurogenic substrate, HMU-PC0, (9 uM final) are added to the plate. An incubation for 60 minutes takes place at 37 masculineC. After that, 4 uL of stop solution is added to raise the pH to 10 to end the kinetic reaction. Plate is read on ViewLux, with detection set at Ex = 386 (10) nm and Em = 447 (10) nm.
Potency is read from the fitted curve at half-maximal effect; tags tell the direction and shape of the fitted curve.

Sequence of UniProt P17405 (P17405 whole entry, looked up): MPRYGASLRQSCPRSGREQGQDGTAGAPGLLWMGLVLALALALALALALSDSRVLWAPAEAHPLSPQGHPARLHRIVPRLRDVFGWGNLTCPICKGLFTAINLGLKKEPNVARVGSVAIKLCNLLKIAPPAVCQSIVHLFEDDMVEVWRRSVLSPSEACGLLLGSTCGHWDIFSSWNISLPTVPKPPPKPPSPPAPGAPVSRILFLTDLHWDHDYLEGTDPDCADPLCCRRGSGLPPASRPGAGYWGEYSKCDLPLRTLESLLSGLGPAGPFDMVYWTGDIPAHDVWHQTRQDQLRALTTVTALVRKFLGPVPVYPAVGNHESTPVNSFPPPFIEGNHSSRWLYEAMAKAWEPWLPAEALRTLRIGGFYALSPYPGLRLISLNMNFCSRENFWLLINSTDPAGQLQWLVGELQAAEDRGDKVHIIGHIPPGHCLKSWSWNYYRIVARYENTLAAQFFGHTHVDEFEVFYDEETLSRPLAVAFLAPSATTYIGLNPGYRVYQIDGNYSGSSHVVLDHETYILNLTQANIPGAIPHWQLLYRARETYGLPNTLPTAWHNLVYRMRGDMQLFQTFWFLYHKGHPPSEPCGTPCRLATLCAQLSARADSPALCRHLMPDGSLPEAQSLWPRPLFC

Compound | activity change, negative = inhibition | Potency
CCOP(=S)(OCC)Oc1ccc2c(C)c(Cl)c(=O)oc2c1 | inactive: -0.0959% | –
COC(=O)C1=C(c2ccc(F)cc2OCc2ccccc2)C[C@@H]2CC[C@H]1N2C | inactive: 0.775% | –
CC(C)Oc1ccc(C2C(C#N)=C(N)Oc3c2c(=O)oc2ccccc32)cc1 (configuration not stated) | – | inconclusive: 79.4 µM [inhibitor, partial curve, poor fit]
Cc1cccc(N=C2c3cc([N+](=O)[O-])ccc3-c3c2cc([N+](=O)[O-])cc3[N+](=O)[O-])c1 | – | inconclusive: 200 µM [inhibitor, partial curve, poor fit]
COC(=O)C(O)(c1ccc(NC(=O)c2ccccc2)cc1)C(F)(F)F (configuration not stated) | inactive: 3.75% | –
Clc1ccc(COC(Cn2ccnc2)c2ccc(Cl)cc2Cl)c(Cl)c1 (configuration not stated) | – | inconclusive: 891 µM [inhibitor, partial curve, poor fit]
CC(=O)O[C@H]1CCC2C3CC[C@H]4[C@@H](O)[C@H](O)CC[C@]4(C)C3CC[C@@]21C (some centres not stated) | inactive: -0.633% | –
CCS(=O)(=O)C1=NN2C(=N)/C(=C\c3ccc(OC(=O)c4ccco4)cc3)C(=O)N=C2S1 | – | inconclusive: 0.398 µM [inhibitor, full curve, poor fit]
Cc1ccc(NS(=O)(=O)c2ccc(Cl)c(N=Nc3c(O)[nH]c(=O)[nH]c3=O)c2)cc1Cl | – | inconclusive: 31.6 µM [inhibitor, partial curve, poor fit]
CCOC(=O)c1ccc(-n2c(N)c(C(=O)NCC3CCCO3)sc2=S)cc1 (configuration not stated) | – | inconclusive: 251 µM [inhibitor, partial curve, poor fit]
O=[N+]([O-])c1ccc(NCc2ccc(Cl)cc2)c2ccncc12 | – | inconclusive: 79.4 µM [inhibitor, partial curve, poor fit]
CCC(=NCCC(c1ccccc1)c1ccccc1)c1c(O)[nH]c(=O)[nH]c1=O | – | inconclusive: 100 µM [inhibitor, partial curve, poor fit]
COc1ccc(OC)c(-n2c(O)c(/C=C3\C=Nc4ccccc43)c(=O)[nH]c2=O)c1 | – | inconclusive: 316 µM [inhibitor, partial curve, poor fit]
CN1C(=O)C(=Cc2ccccc2OCCOc2ccc([N+](=O)[O-])cc2)C(=O)N(C)C1=O | inactive: -3.52% | –
CCOC(=O)c1c(-n2c(C)cc(/C=C3/C(=O)NC(=O)N(CC)C3=O)c2C)sc2c1CCCC2 | – | inconclusive: 141 µM [inhibitor, partial curve, poor fit]
O=C(NC(c1ccc(Cl)cc1)P(=O)(Oc1ccccc1)Oc1ccccc1)OCc1ccccc1 (configuration not stated) | – | inconclusive: 63.1 µM [inhibitor, partial curve, poor fit]
COC1C(OC(=O)c2ccc(C)[nH]2)C(O)C(Oc2ccc3c(O)c(NC(=O)c4ccc(O)c(CC=C(C)C)c4)c(=O)oc3c2Cl)OC1(C)C (configuration not stated) | – | inconclusive: 562 µM [inhibitor, partial curve, poor fit]
COc1cc2c(cc1OC)CN(c1ccc([N+](=O)[O-])c(C(F)(F)F)c1)CC2 | – | inconclusive: 891 µM [inhibitor, partial curve, poor fit]
CCCCn1c(O)c(C(CC)=Nc2ccc3c(c2)CCC3)c(=O)[nH]c1=O | – | inconclusive: 178 µM [inhibitor, partial curve, poor fit]

Compound | activity change, negative = inhibition | Potency
C=CCn1c(O)c(C(C)=Nc2ccc(N(CC)CC)cc2)c(=O)[nH]c1=O | – | inconclusive: 89.1 µM [inhibitor, single point]
COC(=O)C1=C(c2ccc(F)cc2OCc2ccccc2)C[C@@H]2CC[C@H]1N2C(=O)NC1CC1 | inactive: -0.144% | –
COc1ccc(CCNC2CCCCC2)cc1OC | inactive: -2.2% | –
CC/C(=N\Nc1cccc2ccccc12)c1c(O)[nH]c(=O)[nH]c1=O | – | inconclusive: 200 µM [inhibitor, partial curve, poor fit]
C=C(C)C(Cc1c(OC)ccc(C(=O)/C=C/c2ccc(O)cc2)c1O)OO (configuration not stated) | – | inconclusive: 79.4 µM [inhibitor, partial curve, poor fit]
COc1cccc(-c2sc3ccccc3c2-c2ccc(OCCN3CCOCC3)cc2)c1 | – | inconclusive: 89.1 µM [inhibitor, partial curve]
O=C1NC(=O)N(CCc2ccc(F)cc2)C(=O)/C1=C/c1cccs1 | inactive: 0.046% | –
COc1ccc(C2/C=C\CN(C(=O)Oc3ccccc3)CC(=O)N2Cc2ccc(F)cc2)cc1 (configuration not stated) | – | inconclusive: 355 µM [inhibitor, partial curve, poor fit]
Cn1c(C(=O)N2CCN(c3nc4ccccc4s3)CC2)cc2sccc21 | – | inconclusive: 112 µM [inhibitor, partial curve, poor fit]
COc1ccc(Oc2cc(NC(=O)c3nn(C)cc3[N+](=O)[O-])cc([N+](=O)[O-])c2)cc1 | – | inconclusive: 79.4 µM [inhibitor, partial curve]
Cc1ccc(Cl)cc1N1CCN(C(=O)c2cn(C)c(=O)c3c2c2ccccc2n3C)CC1 | – | inconclusive: 126 µM [inhibitor, partial curve, poor fit]
Cc1c(N=Nc2c(O)[nH]c(=O)[nH]c2=O)c(=O)n(-c2ccccc2)n1C | inactive: -0.526% | –
COCCCn1c(N)c(C(=O)Nc2sc3c(c2C(=O)OC)CCCC3)c2nc3ccccc3nc21 | – | inconclusive: 316 µM [inhibitor, partial curve, poor fit]
O=C1NC(=O)N(c2ccccc2)C(=O)/C1=C\c1ccc([N+](=O)[O-])s1 | inactive: -13.3% | –
CC(C)CS(=O)(=O)C1=NN2C(=N)/C(=C\c3ccc(OC(=O)c4ccco4)cc3)C(=O)N=C2S1 | – | inconclusive: 2.24 µM [inhibitor, full curve, poor fit]
O=P(O)(O)COc1ccccc1O | – | inconclusive: 89.1 µM [inhibitor, single point]
CCOC(=O)c1c(-n2c(C)cc(/C=C3\C(=O)NC(=O)N(C)C3=O)c2C)sc2c1CCCC2 | – | inconclusive: 126 µM [inhibitor, partial curve]
CN(C)c1ccc(P(=O)(Nc2ccc([N+](=O)[O-])cc2)N2CCOCC2)c(NC(=O)c2cccs2)c1 (configuration not stated) | – | inconclusive: 79.4 µM [inhibitor, single point]
